{"source": "the supplement of paper PMC10126150", "note": "Sequences with one replicate were seen in a single cluster, so their values are uncertain.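 Note: ATP exposure 15 min at 22 °C before imaging.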", "data": [{"test_system": "ATP", "assay": "switch fluorescence ratio, 500 uM ATP over buffer (Cy3 cluster intensity, sum of 5 cycles each) (fold (ratio)); higher = stronger signal-on switching upon ATP binding; sequences stand for … in TCGTCGGCAGCGTCAGATGTGTATAAGAGACAGTTTTTTTTTTTTTTTTTTTTTTTTT…TC", "details": "aptamer strand: ATP DNA aptamer (quencher-CACCTGGGGGAGTATTGCGGAGGAAGG + anchor), 100 nM annealed; ATP concentration: 500 uM; one replicate", "outline": "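Per cluster, summed Cy3 intensity from the target cycles was divided by that from the buffer cycles to give the fluorescence ratio, then averaged per switch-domain sequence. Clusters outside 100-1000 RFU were excluded. The Cy3-labelled switching-strand clusters, on a modified Illumina MiSeq flow-cell, were annealed to 100 nM quencher-labelled ATP aptamer and imaged in selection buffer, then after 15 min with 500 uM ATP at 22 °C, for five cycles with NaOH stripping and re-annealing between them.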", "values": [{"sequence": "GGCACCAAGT", "switch fluorescence ratio": 1.06}, {"sequence": "GGCACGACTG", "switch fluorescence ratio": 0.992}, {"sequence": "GGCACGCGTA", "switch fluorescence ratio": 1.02}, {"sequence": "GGCACGCTTG", "switch fluorescence ratio": 1}, {"sequence": "GGCAGAAAAG", "switch fluorescence ratio": 0.971}, {"sequence": "GGCAGAAGAG", "switch fluorescence ratio": 1.06}, {"sequence": "GGCAGAGTAT", "switch fluorescence ratio": 1.02}, {"sequence": "GGCAGATTTG", "switch fluorescence ratio": 0.991}, {"sequence": "GGCAGCATGA", "switch fluorescence ratio": 0.987}, {"sequence": "GGCAGCGG", "switch fluorescence ratio": 1}, {"sequence": "GGCAGCGGTG", "switch fluorescence ratio": 0.904}, {"sequence": "GGCAGCTATA", "switch fluorescence ratio": 1.19}, {"sequence": "GGCAGGCACA", "switch fluorescence ratio": 1.03}, {"sequence": "GGCAGGGTGG", "switch fluorescence ratio": 0.996}, {"sequence": "GGCAGGTCTG", "switch fluorescence ratio": 0.985}, {"sequence": "GGCAGTTCCG", "switch fluorescence ratio": 0.998}, {"sequence": "GGCATCAGCT", "switch fluorescence ratio": 1.02}, {"sequence": "GGCATCCCGC", "switch fluorescence ratio": 0.998}, {"sequence": "GGCATCCGTT", "switch fluorescence ratio": 0.996}, {"sequence": "GGCATCTCA", "switch fluorescence ratio": 1}, {"sequence": "GGCATCTCTT", "switch fluorescence ratio": 1.05}, {"sequence": "GGCATTCACT", "switch fluorescence ratio": 1}, {"sequence": "GGCATTGACG", "switch fluorescence ratio": 1.12}, {"sequence": "GGCATTTTCT", "switch fluorescence ratio": 0.987}, {"sequence": "GGCATTTTGT", "switch fluorescence ratio": 0.999}, {"sequence": "GGCCAACAGA", "switch fluorescence ratio": 0.98}, {"sequence": "GGCCACGGCC", "switch fluorescence ratio": 0.986}, {"sequence": "GGCCACGGTG", "switch fluorescence ratio": 1.54}, {"sequence": "GGCCATACT", "switch fluorescence ratio": 1.03}, {"sequence": "GGCCCACAGA", "switch fluorescence ratio": 0.974}, {"sequence": "GGCCCATCTA", "switch fluorescence ratio": 1.03}, {"sequence": "GGCCCATG", "switch fluorescence ratio": 1.01}, {"sequence": "GGCCCATGGG", "switch fluorescence ratio": 1.03}, {"sequence": "GGCCCCATTA", "switch fluorescence ratio": 2.54}, {"sequence": "GGCCCCGAAG", "switch fluorescence ratio": 1.34}, {"sequence": "GGCCCTAATC", "switch fluorescence ratio": 1.01}, {"sequence": "GGCCCTCGCG", "switch fluorescence ratio": 1.05}, {"sequence": "GGCCCTCTAC", "switch fluorescence ratio": 1.03}, {"sequence": "GGCCCTGATC", "switch fluorescence ratio": 1.05}, {"sequence": "GGCCCTTGTA", "switch fluorescence ratio": 0.97}, {"sequence": "GGCCGCTCGA", "switch fluorescence ratio": 1.03}, {"sequence": "GGCCGGACGC", "switch fluorescence ratio": 0.997}, {"sequence": "GGCCGGCTTA", "switch fluorescence ratio": 0.996}, {"sequence": "GGCCGGGGAT", "switch fluorescence ratio": 1.01}, {"sequence": "GGCCGGTGCT", "switch fluorescence ratio": 1.02}, {"sequence": "GGCCGTGGAG", "switch fluorescence ratio": 0.984}, {"sequence": "GGCCTAACTT", "switch fluorescence ratio": 1.01}, {"sequence": "GGCCTAGAAT", "switch fluorescence ratio": 0.973}, {"sequence": "GGCCTAGCAA", "switch fluorescence ratio": 2.13}, {"sequence": "GGCCTATAGC", "switch fluorescence ratio": 0.987}, {"sequence": "GGCCTCTTAA", "switch fluorescence ratio": 1.01}, {"sequence": "GGCCTGCGAT", "switch fluorescence ratio": 1.13}, {"sequence": "GGCCTGGAGT", "switch fluorescence ratio": 0.99}, {"sequence": "GGCCTGGTTG", "switch fluorescence ratio": 1.01}, {"sequence": "GGCCTTAGGT", "switch fluorescence ratio": 1.02}, {"sequence": "GGCCTTGTGA", "switch fluorescence ratio": 0.988}, {"sequence": "GGCGAAAAAG", "switch fluorescence ratio": 0.982}, {"sequence": "GGCGACACAT", "switch fluorescence ratio": 1}, {"sequence": "GGCGACCTTC", "switch fluorescence ratio": 1.06}, {"sequence": "GGCGAGGAGG", "switch fluorescence ratio": 1}, {"sequence": "GGCGATATTG", "switch fluorescence ratio": 0.977}, {"sequence": "GGCGATCTGC", "switch fluorescence ratio": 1}, {"sequence": "GGCGATCTTA", "switch fluorescence ratio": 1.02}, {"sequence": "GGCGATGGGC", "switch fluorescence ratio": 1}, {"sequence": "GGCGATGTG", "switch fluorescence ratio": 1.07}, {"sequence": "GGCGCACGGT", "switch fluorescence ratio": 0.967}, {"sequence": "GGCGCAGGTG", "switch fluorescence ratio": 2.97}, {"sequence": "GGCGCAGTAG", "switch fluorescence ratio": 1.42}, {"sequence": "GGCGCCATGC", "switch fluorescence ratio": 1.09}, {"sequence": "GGCGCGTACT", "switch fluorescence ratio": 1.07}, {"sequence": "GGCGCGTGGA", "switch fluorescence ratio": 0.966}, {"sequence": "GGCGCTACGT", "switch fluorescence ratio": 1.13}, {"sequence": "GGCGCTTCG", "switch fluorescence ratio": 1.02}, {"sequence": "GGCGGCTCG", "switch fluorescence ratio": 0.975}, {"sequence": "GGCGGCTTTG", "switch fluorescence ratio": 1.07}, {"sequence": "GGCGGGAATC", "switch fluorescence ratio": 0.975}, {"sequence": "GGCGGGATAA", "switch fluorescence ratio": 1.07}, {"sequence": "GGCGGGGTTC", "switch fluorescence ratio": 0.992}, {"sequence": "GGCGTAAAAC", "switch fluorescence ratio": 1.4}, {"sequence": "GGCGTACAGA", "switch fluorescence ratio": 1.02}, {"sequence": "GGCGTATGGG", "switch fluorescence ratio": 0.979}, {"sequence": "GGCGTCCGAA", "switch fluorescence ratio": 1.07}, {"sequence": "GGCGTGAATT", "switch fluorescence ratio": 1}, {"sequence": "GGCGTGAGCG", "switch fluorescence ratio": 1.02}, {"sequence": "GGCGTGCTGG", "switch fluorescence ratio": 0.998}, {"sequence": "GGCGTGTGAA", "switch fluorescence ratio": 0.99}, {"sequence": "GGCGTTACGG", "switch fluorescence ratio": 1.04}, {"sequence": "GGCGTTATTC", "switch fluorescence ratio": 1.02}, {"sequence": "GGCGTTGTTG", "switch fluorescence ratio": 0.987}, {"sequence": "GGCGTTTCAG", "switch fluorescence ratio": 1.01}, {"sequence": "GGCTAAAGAT", "switch fluorescence ratio": 0.995}, {"sequence": "GGCTAAAGGG", "switch fluorescence ratio": 1}, {"sequence": "GGCTAAGCAT", "switch fluorescence ratio": 1.04}, {"sequence": "GGCTAGAGAG", "switch fluorescence ratio": 0.999}, {"sequence": "GGCTAGTAG", "switch fluorescence ratio": 1.05}, {"sequence": "GGCTAGTGTT", "switch fluorescence ratio": 0.979}, {"sequence": "GGCTATGCTT", "switch fluorescence ratio": 0.992}, {"sequence": "GGCTATGTA", "switch fluorescence ratio": 0.976}, {"sequence": "GGCTATGTT", "switch fluorescence ratio": 1.03}, {"sequence": "GGCTATTTAC", "switch fluorescence ratio": 1.05}, {"sequence": "GGCTCACCTC", "switch fluorescence ratio": 0.992}, {"sequence": "GGCTCACGGG", "switch fluorescence ratio": 1.03}, {"sequence": "GGCTCAGCTG", "switch fluorescence ratio": 1}, {"sequence": "GGCTCAGTAT", "switch fluorescence ratio": 0.996}, {"sequence": "GGCTCATAT", "switch fluorescence ratio": 0.964}, {"sequence": "GGCTCATGAT", "switch fluorescence ratio": 1.03}, {"sequence": "GGCTCCGGTG", "switch fluorescence ratio": 1.21}, {"sequence": "GGCTCTTTCG", "switch fluorescence ratio": 0.984}, {"sequence": "GGCTGAAAGG", "switch fluorescence ratio": 0.981}, {"sequence": "GGCTGAGTTT", "switch fluorescence ratio": 0.961}, {"sequence": "GGCTGATGAG", "switch fluorescence ratio": 1.01}, {"sequence": "GGCTGCCATC", "switch fluorescence ratio": 0.959}, {"sequence": "GGCTGCCGAC", "switch fluorescence ratio": 1.04}, {"sequence": "GGCTGGGAAC", "switch fluorescence ratio": 0.984}, {"sequence": "GGCTGGTCAA", "switch fluorescence ratio": 1}, {"sequence": "GGCTTAATAT", "switch fluorescence ratio": 1.02}, {"sequence": "GGCTTAGGAG", "switch fluorescence ratio": 1.03}, {"sequence": "GGCTTCGGCT", "switch fluorescence ratio": 1.01}, {"sequence": "GGCTTGAGAG", "switch fluorescence ratio": 0.981}, {"sequence": "GGCTTGTGGG", "switch fluorescence ratio": 1.01}, {"sequence": "GGCTTGTTCG", "switch fluorescence ratio": 1.01}, {"sequence": "GGCTTTAGAC", "switch fluorescence ratio": 1}, {"sequence": "GGCTTTGGGA", "switch fluorescence ratio": 0.967}, {"sequence": "GGCTTTTCCC", "switch fluorescence ratio": 1.02}, {"sequence": "GGGAAAAGAG", "switch fluorescence ratio": 0.97}, {"sequence": "GGGAAACTAT", "switch fluorescence ratio": 0.992}, {"sequence": "GGGAAGAACG", "switch fluorescence ratio": 0.962}, {"sequence": "GGGAAGAAGA", "switch fluorescence ratio": 1.02}, {"sequence": "GGGAAGACAA", "switch fluorescence ratio": 1.01}, {"sequence": "GGGAAGACCA", "switch fluorescence ratio": 1.06}, {"sequence": "GGGAAGCAAA", "switch fluorescence ratio": 1.03}, {"sequence": "GGGAATATTG", "switch fluorescence ratio": 0.973}, {"sequence": "GGGACAACGC", "switch fluorescence ratio": 1.02}, {"sequence": "GGGACAGATT", "switch fluorescence ratio": 1.01}, {"sequence": "GGGACCAGAA", "switch fluorescence ratio": 0.973}, {"sequence": "GGGACCCTGT", "switch fluorescence ratio": 0.989}, {"sequence": "GGGACCGGAC", "switch fluorescence ratio": 1.06}, {"sequence": "GGGACGGC", "switch fluorescence ratio": 1.03}, {"sequence": "GGGACGTCCA", "switch fluorescence ratio": 0.984}, {"sequence": "GGGACTCTA", "switch fluorescence ratio": 1.01}, {"sequence": "GGGACTGCAT", "switch fluorescence ratio": 1.03}, {"sequence": "GGGAGAGATA", "switch fluorescence ratio": 0.991}, {"sequence": "GGGAGAGGTC", "switch fluorescence ratio": 1.07}, {"sequence": "GGGAGCATGG", "switch fluorescence ratio": 1.01}, {"sequence": "GGGAGCATT", "switch fluorescence ratio": 0.965}, {"sequence": "GGGAGCCGCG", "switch fluorescence ratio": 1.03}, {"sequence": "GGGAGGCCGA", "switch fluorescence ratio": 1.04}, {"sequence": "GGGAGGCGCG", "switch fluorescence ratio": 1.04}, {"sequence": "GGGAGGCTGT", "switch fluorescence ratio": 0.991}, {"sequence": "GGGAGTAATG", "switch fluorescence ratio": 1.41}, {"sequence": "GGGAGTTGTC", "switch fluorescence ratio": 0.986}, {"sequence": "GGGATAATCA", "switch fluorescence ratio": 0.975}, {"sequence": "GGGATCACAT", "switch fluorescence ratio": 1}]}]}
